SMILES strings stand for the structures. The whole screen tested about 39,000 compounds, of which about 220 (0.56%) showed activity. The list shows a part of the results.
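Further: static incubation at 37 °C against the wild-type strain, values averaged over two biological replicates.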

The test concerns Escherichia coli K-12 BW25113. In words: relative growth (OD600 normalised to plate interquartile mean) (fraction); higher = less growth inhibition, active = 0.2 or less. The following applies: 50 µM; LB; incubation time: overnight (16-24 h).
Take `C[C@@H]1CCCCO[C@@H](CN(C)C(=O)Cc2ccccc2)[C@@H](C)CN([C@H](C)CO)C(=O)c2cc(NS(=O)(=O)c3ccc(Cl)cc3)ccc2O1`: the relative growth is inactive: 0.989. Then `C[C@@H]1CN([C@H](C)CO)C(=O)c2cc(NS(=O)(=O)c3cn(C)cn3)ccc2O[C@@H](C)CCCCO[C@H]1CN(C)S(=O)(=O)c1cccs1`, with inactive: 0.993; and `Cc1noc(C)c1NC(=O)Nc1ccc2c(c1)C(=O)N([C@H](C)CO)C[C@@H](C)[C@H](CN(C)Cc1ccc(C(F)(F)F)cc1)OCCCC[C@@H](C)O2`, with inactive: 0.967. Turning to `C[C@H](CO)N1C[C@H](C)[C@@H](CN(C)Cc2ccc(C(=O)O)cc2)Oc2ncc(C#CCN(C)C)cc2C1=O`, the relative growth was inactive: 1. For `C[C@@H]1CN([C@H](C)CO)C(=O)c2cc(NC(=O)C3CCCCC3)ccc2O[C@@H](C)CCCCO[C@H]1CN(C)C(=O)c1ccccc1`, the relative growth was inactive: 1.01. Then `C[C@@H]1CCCCO[C@H](CN(C)S(=O)(=O)c2cccs2)[C@H](C)CN([C@H](C)CO)C(=O)c2cc(NC(=O)CCC(F)(F)F)ccc2O1`, with inactive: 0.999.

Regarding `O=C(C[C@@H]1CC[C@H]2[C@@H](COC[C@H](O)CN2S(=O)(=O)c2ccc(Cl)cc2)O1)NCCN1CCCCC1`, the relative growth is inactive: 1.05. Then `O=C(CN1CCOCC1)NCC[C@H]1CC[C@@H](NS(=O)(=O)c2ccc(Cl)cc2)[C@H](CO)O1`, with inactive: 1.02; and `C[C@H]1CN([C@@H](C)CO)C(=O)c2cccc(NS(=O)(=O)c3cn(C)cn3)c2O[C@H]1CN(C)Cc1ccc(C(=O)Nc2ccccc2N)cc1`, with inactive: 0.989; and `Cc1noc(C)c1S(=O)(=O)Nc1cccc2c1O[C@@H](CN(C)S(=O)(=O)c1cccs1)[C@@H](C)CN([C@H](C)CO)C2=O`, with inactive: 1. Then `COc1ccc(S(=O)(=O)N(C)C[C@@H]2Oc3ccc(NC(=O)CCC(F)(F)F)cc3CC(=O)N([C@H](C)CO)C[C@@H]2C)cc1`, with inactive: 1.02; and `C[C@@H]1CCCCO[C@@H](CN(C)C(=O)c2ccccc2)[C@H](C)CN([C@@H](C)CO)C(=O)c2cc(NS(=O)(=O)c3ccccc3)ccc2O1`, with inactive: 1.03. With `C[C@H]1CN([C@@H](C)CO)C(=O)c2cc(NC(=O)Cc3ccccc3)ccc2O[C@@H]1CN(C)Cc1ccc(Cl)c(Cl)c1`, the relative growth is inactive: 1.03.

For the compound `C[C@@H]1CCCCO[C@H](CN(C)CC2CC2)[C@H](C)CN([C@@H](C)CO)C(=O)c2cc(NC(=O)Cc3ccccc3)ccc2O1`, the relative growth was inactive: 1.02.

Turning to `COc1ccc(S(=O)(=O)Nc2ccc3c(c2)C(=O)N([C@H](C)CO)C[C@@H](C)[C@H](CN(C)Cc2ccccc2)OCCCC[C@@H](C)O3)cc1`, the relative growth was inactive: 1.01. Regarding `COCC(=O)Nc1ccc2c(c1)C(=O)N(C)C[C@H](OC)[C@@H](C)CN(Cc1ccccc1F)[C@@H](C)CO2`, the relative growth is inactive: 1.

With `C[C@@H]1CCCCO[C@H](CN(C)C(=O)C2CCCCC2)[C@@H](C)CN([C@@H](C)CO)C(=O)c2cc(NC(=O)NC3CCCCC3)ccc2O1`, the relative growth is inactive: 1.02. On to `C[C@H](CO)N1C[C@H](C)[C@@H](CN(C)C(=O)Nc2ccc(C(F)(F)F)cc2)OCCCC[C@H](C)Oc2ccc(NC(=O)Nc3ccc(F)cc3)cc2C1=O`, for which the relative growth is inactive: 1.03. Then `C[C@@H]1CCCCO[C@@H](CN(C)Cc2ccc(C(F)(F)F)cc2)[C@@H](C)CN([C@@H](C)CO)C(=O)c2cc(NC(=O)CCCN(C)C)ccc2O1`, with inactive: 0.952; and `C[C@@H]1CCCCO[C@@H](CN(C)C(=O)Nc2ccc3c(c2)OCO3)[C@@H](C)CN([C@@H](C)CO)C(=O)c2cc(NC(=O)c3ccccc3)ccc2O1`, with inactive: 1.01. Then `C[C@H](CO)N1C[C@H](C)[C@H](CN(C)S(C)(=O)=O)Oc2c(NC(=O)c3ccc(-c4nccs4)cc3)cccc2C1=O`, with inactive: 0.995.

As for `C[C@H]1CCCCO[C@H](CN(C)Cc2ccc(Cl)c(Cl)c2)[C@@H](C)CN([C@@H](C)CO)C(=O)c2cc(NS(=O)(=O)c3ccccc3)ccc2O1`, the relative growth is inactive: 1.

Consider `C(=N\c1ccc2ccccc2c1)/Nc1ccc2ccccc2c1`, for which the relative growth is inactive: 1.

Regarding `COC(=O)C[C@@H]1CC[C@H]2[C@@H](COC[C@@H](O)CN2S(=O)(=O)c2ccccc2C)O1`, the relative growth is inactive: 0.97. As to `CCCCC(CC)COC(=O)c1ccccc1O` (stereo not drawn), the relative growth is inactive: 0.851. Then `C[C@H]1CN([C@@H](C)CO)C(=O)c2cccc(NC(=O)C3CC3)c2O[C@H]1CN(C)S(=O)(=O)c1ccc(F)cc1`, with inactive: 0.985; and `COc1ccc(C#Cc2cnc3c(c2)C(=O)N([C@H](C)CO)C[C@H](C)[C@H](CN(C)C(=O)Nc2cccc4ccccc24)O3)cc1OC`, with inactive: 1.01; and `C[C@@H]1CN([C@H](C)CO)C(=O)c2cccc(NC(=O)c3ccncc3)c2O[C@H]1CN(C)S(=O)(=O)c1cn(C)cn1`, with inactive: 1.02. Take `CC(=O)O[C@H]1CC(C)(C)C[C@H]2[C@]13CO[C@@]21CC[C@H]2[C@@]4(C)CC[C@H](O[C@@H]5OC[C@H](O[C@@H]6O[C@H](CO)[C@@H](O)[C@H](O)[C@H]6O[C@@H]6OC[C@@H](O[C@@H]7O[C@H](CO)[C@@H](O)[C@H](O)[C@H]7O)[C@H](O)[C@H]6O)[C@H](O)[C@H]5O[C@@H]5O[C@H](CO)[C@@H](O)[C@H](O)[C@H]5O)[C@@](C)(CO)[C@@H]4CC[C@@]2(C)[C@]1(C)C[C@H]3O`: the relative growth is inactive: 0.999. Then `CCc1nc2ccc(C(=O)NCCOc3ccc(OC)cc3)cn2c1N(CC)Cc1cccc(Br)c1`, with inactive: 1.03; and `COc1ccc([C@@H]([C@H](Cc2ccccc2)OC(C)=O)N2C[C@@H](OC(C)=O)[C@H]3C(=NO[C@@H]3c3ccccc3)[C@@H]2Cc2ccccc2)cc1`, with inactive: 1.03; and `Cc1noc(C)c1S(=O)(=O)N(C)C[C@H]1Oc2c(NC(=O)C3CC3)cccc2C(=O)N([C@H](C)CO)C[C@H]1C`, with inactive: 1.01. Then `CC(C)=CCC[C@]1(C)[C@@H](CC=C(C)C)C[C@]2(CC=C(C)C)C(=O)C(CC=C(C)C)=C(O)[C@@]1(C(=O)C(C)C)C2=O`, with inactive: 1.01.
